Source: publication PMC12820563
This is one part of the list. The list includes weakly bound sequences.

Molecular target: T1, MBP-FoxP3dN (UniProt Q99JB6)
T1 sequence: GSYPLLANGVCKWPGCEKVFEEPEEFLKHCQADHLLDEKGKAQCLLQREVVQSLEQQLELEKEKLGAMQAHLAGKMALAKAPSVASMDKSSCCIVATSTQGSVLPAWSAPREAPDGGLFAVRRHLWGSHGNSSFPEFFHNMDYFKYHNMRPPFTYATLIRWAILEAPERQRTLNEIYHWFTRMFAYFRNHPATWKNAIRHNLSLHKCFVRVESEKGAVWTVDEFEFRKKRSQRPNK
Assay: PD-seq (MBP pull-down with sequencing)
Details: 20 mM Tris-HCl pH 7.5, 100 mM NaCl, 1.5 mM MgCl2, 0.4 uM protein, 0.1 uM dsDNA library, 30 min, room temperature, amylose pull-down; high values mean tight binding; double strand, one strand shown

Sequence	binding signal (RPM ratio (pull-down/input))
GATGATTGTTCTCCCAGCTGATGAATTCGCCAAGTCGAGTAAACAAATTTTCCTAATCTTTCTGTTCAAGCGCCATCTAC	0.211
GATGATTGTTCTCCCAGCTGATGAATTTCGAAGATCGAGTAAACAAATTTTCCTAATCTTTCTGTTCAAGCGCCATCTAC	0.227
GATGATTGTTCTCCCAGCTGATGAATTTGTGGGCTCGAGTAAACAAATTTTCCTAATCTTTCTGTTCAAGCGCCATCTAC	3.18
GATGATTGTTCTCCCAGCTGATGAATTTTATGCATCGAGTAAACAAATTTTCCTAATCTTTCTGTTCAAGCGCCATCTAC	1.54
GATGATTGTTCTCCCAGCTGATGAATTAGCTCCATCGAGTAAACAAATTTTCCTAATCTTTCTGTTCAAGCGCCATCTAC	0.302
GATGATTGTTCTCCCAGCTGATGAATTTTCATTGTCGAGTAAACAAATTTTCCTAATCTTTCTGTTCAAGCGCCATCTAC	0.641
GATGATTGTTCTCCCAGCTGATGAATTCTTGCACTCGAGTAAACAAATTTTCCTAATCTTTCTGTTCAAGCGCCATCTAC	0.622
GATGATTGTTCTCCCAGCTGATGAATTTGCGCAGTCGAGTAAACAAATTTTCCTAATCTTTCTGTTCAAGCGCCATCTAC	0.71
GATGATTGTTCTCCCAGCTGATGAATTGATTATCTCGAGTAAACAAATTTTCCTAATCTTTCTGTTCAAGCGCCATCTAC	1.54
GATGATTGTTCTCCCAGCTGATGAATTTCTCTAGTCGAGTAAACAAATTTTCCTAATCTTTCTGTTCAAGCGCCATCTAC	0.192
GATGATTGTTCTCCCAGCTGATGAATTTGGCGTATCGAGTAAACAAATTTTCCTAATCTTTCTGTTCAAGCGCCATCTAC	1.36
GATGATTGTTCTCCCAGCTGATGAATTGAACAGCTCGAGTAAACAAATTTTCCTAATCTTTCTGTTCAAGCGCCATCTAC	0.228
GATGATTGTTCTCCCAGCTGATGAATTGTTAAACTCGAGTAAACAAATTTTCCTAATCTTTCTGTTCAAGCGCCATCTAC	0.352
GATGATTGTTCTCCCAGCTGATGAATTCCCCTGTTCGAGTAAACAAATTTTCCTAATCTTTCTGTTCAAGCGCCATCTAC	0.236
GATGATTGTTCTCCCAGCTGATGAATTGTTCGTCTCGAGTAAACAAATTTTCCTAATCTTTCTGTTCAAGCGCCATCTAC	0.473
GATGATTGTTCTCCCAGCTGATGAATTTGGGTAGTCGAGTAAACAAATTTTCCTAATCTTTCTGTTCAAGCGCCATCTAC	0.745
GATGATTGTTCTCCCAGCTGATGAATTTAGTATATCGAGTAAACAAATTTTCCTAATCTTTCTGTTCAAGCGCCATCTAC	2.93
GATGATTGTTCTCCCAGCTGATGAATTGCTTTTATCGAGTAAACAAATTTTCCTAATCTTTCTGTTCAAGCGCCATCTAC	1.11
GATGATTGTTCTCCCAGCTGATGAATTGGCCCCATCGAGTAAACAAATTTTCCTAATCTTTCTGTTCAAGCGCCATCTAC	0.303
GATGATTGTTCTCCCAGCTGATGAATTAACACCATCGAGTAAACAAATTTTCCTAATCTTTCTGTTCAAGCGCCATCTAC	0.564
GATGATTGTTCTCCCAGCTGATGAATTTTTTACGTCGAGTAAACAAATTTTCCTAATCTTTCTGTTCAAGCGCCATCTAC	0.246

Sequence	binding signal (RPM ratio (pull-down/input))
GATGATTGTTCTCCCAGCTGATGAATTCCAGGTTTCGAGTAAACAAATTTTCCTAATCTTTCTGTTCAAGCGCCATCTAC	0.345
GATGATTGTTCTCCCAGCTGATGAATTGTGAGAATCGAGTAAACAAATTTTCCTAATCTTTCTGTTCAAGCGCCATCTAC	0.379
GATGATTGTTCTCCCAGCTGATGAATTGTCAGTATCGAGTAAACAAATTTTCCTAATCTTTCTGTTCAAGCGCCATCTAC	0.551
GATGATTGTTCTCCCAGCTGATGAATTTCTGATCTCGAGTAAACAAATTTTCCTAATCTTTCTGTTCAAGCGCCATCTAC	0.233
GATGATTGTTCTCCCAGCTGATGAATTGTACATTTCGAGTAAACAAATTTTCCTAATCTTTCTGTTCAAGCGCCATCTAC	0.617
GATGATTGTTCTCCCAGCTGATGAATTGCGAAGCTCGAGTAAACAAATTTTCCTAATCTTTCTGTTCAAGCGCCATCTAC	0.501
GATGATTGTTCTCCCAGCTGATGAATTCAGCCATTCGAGTAAACAAATTTTCCTAATCTTTCTGTTCAAGCGCCATCTAC	3.68
GATGATTGTTCTCCCAGCTGATGAATTCAGTAGTTCGAGTAAACAAATTTTCCTAATCTTTCTGTTCAAGCGCCATCTAC	1.16
GATGATTGTTCTCCCAGCTGATGAATTTGAAACCTCGAGTAAACAAATTTTCCTAATCTTTCTGTTCAAGCGCCATCTAC	0.339
GATGATTGTTCTCCCAGCTGATGAATTTAATATATCGAGTAAACAAATTTTCCTAATCTTTCTGTTCAAGCGCCATCTAC	0.891
GATGATTGTTCTCCCAGCTGATGAATTGTCGCCTTCGAGTAAACAAATTTTCCTAATCTTTCTGTTCAAGCGCCATCTAC	2.66
GATGATTGTTCTCCCAGCTGATGAATTATTCGACTCGAGTAAACAAATTTTCCTAATCTTTCTGTTCAAGCGCCATCTAC	0.384
GATGATTGTTCTCCCAGCTGATGAATTCAAGCGTTCGAGTAAACAAATTTTCCTAATCTTTCTGTTCAAGCGCCATCTAC	1.08
GATGATTGTTCTCCCAGCTGATGAATTATTGAGGTCGAGTAAACAAATTTTCCTAATCTTTCTGTTCAAGCGCCATCTAC	0.344
GATGATTGTTCTCCCAGCTGATGAATTGCGCCGATCGAGTAAACAAATTTTCCTAATCTTTCTGTTCAAGCGCCATCTAC	1.06
GATGATTGTTCTCCCAGCTGATGAATTCCTGACGTCGAGTAAACAAATTTTCCTAATCTTTCTGTTCAAGCGCCATCTAC	0.236
GATGATTGTTCTCCCAGCTGATGAATTGTTCCGGTCGAGTAAACAAATTTTCCTAATCTTTCTGTTCAAGCGCCATCTAC	0.264
GATGATTGTTCTCCCAGCTGATGAATTCACGGTTTCGAGTAAACAAATTTTCCTAATCTTTCTGTTCAAGCGCCATCTAC	0.47
GATGATTGTTCTCCCAGCTGATGAATTTTCTAGCTCGAGTAAACAAATTTTCCTAATCTTTCTGTTCAAGCGCCATCTAC	0.238
GATGATTGTTCTCCCAGCTGATGAATTGTAGGTCTCGAGTAAACAAATTTTCCTAATCTTTCTGTTCAAGCGCCATCTAC	0.759
GATGATTGTTCTCCCAGCTGATGAATTGACAAAGTCGAGTAAACAAATTTTCCTAATCTTTCTGTTCAAGCGCCATCTAC	0.248

Sequence	binding signal (RPM ratio (pull-down/input))
GATGATTGTTCTCCCAGCTGATGAATTTGTTTCCTCGAGTAAACAAATTTTCCTAATCTTTCTGTTCAAGCGCCATCTAC	5.92
GATGATTGTTCTCCCAGCTGATGAATTCCTCTAGTCGAGTAAACAAATTTTCCTAATCTTTCTGTTCAAGCGCCATCTAC	0.193
GATGATTGTTCTCCCAGCTGATGAATTAAAAGACTCGAGTAAACAAATTTTCCTAATCTTTCTGTTCAAGCGCCATCTAC	0.207
GATGATTGTTCTCCCAGCTGATGAATTCGGAATATCGAGTAAACAAATTTTCCTAATCTTTCTGTTCAAGCGCCATCTAC	0.414
GATGATTGTTCTCCCAGCTGATGAATTTAGCGATTCGAGTAAACAAATTTTCCTAATCTTTCTGTTCAAGCGCCATCTAC	1.28
GATGATTGTTCTCCCAGCTGATGAATTTGCGTAGTCGAGTAAACAAATTTTCCTAATCTTTCTGTTCAAGCGCCATCTAC	2.99
GATGATTGTTCTCCCAGCTGATGAATTATACGTGTCGAGTAAACAAATTTTCCTAATCTTTCTGTTCAAGCGCCATCTAC	0.678
GATGATTGTTCTCCCAGCTGATGAATTTCTCTTTTCGAGTAAACAAATTTTCCTAATCTTTCTGTTCAAGCGCCATCTAC	0.288
GATGATTGTTCTCCCAGCTGATGAATTGGGCACTTCGAGTAAACAAATTTTCCTAATCTTTCTGTTCAAGCGCCATCTAC	0.729
GATGATTGTTCTCCCAGCTGATGAATTAGGCTTATCGAGTAAACAAATTTTCCTAATCTTTCTGTTCAAGCGCCATCTAC	1.33
GATGATTGTTCTCCCAGCTGATGAATTCGTAGGCTCGAGTAAACAAATTTTCCTAATCTTTCTGTTCAAGCGCCATCTAC	0.496
GATGATTGTTCTCCCAGCTGATGAATTGTGTGCTTCGAGTAAACAAATTTTCCTAATCTTTCTGTTCAAGCGCCATCTAC	2.42
GATGATTGTTCTCCCAGCTGATGAATTTAAGTGTTCGAGTAAACAAATTTTCCTAATCTTTCTGTTCAAGCGCCATCTAC	1.03
GATGATTGTTCTCCCAGCTGATGAATTTCTTCACTCGAGTAAACAAATTTTCCTAATCTTTCTGTTCAAGCGCCATCTAC	0.269
GATGATTGTTCTCCCAGCTGATGAATTAACTGCTTCGAGTAAACAAATTTTCCTAATCTTTCTGTTCAAGCGCCATCTAC	0.288
GATGATTGTTCTCCCAGCTGATGAATTGCTAGCATCGAGTAAACAAATTTTCCTAATCTTTCTGTTCAAGCGCCATCTAC	1.34
GATGATTGTTCTCCCAGCTGATGAATTCGTACTCTCGAGTAAACAAATTTTCCTAATCTTTCTGTTCAAGCGCCATCTAC	0.539
GATGATTGTTCTCCCAGCTGATGAATTCGTTCGTTCGAGTAAACAAATTTTCCTAATCTTTCTGTTCAAGCGCCATCTAC	0.42
GATGATTGTTCTCCCAGCTGATGAATTTTCACCTTCGAGTAAACAAATTTTCCTAATCTTTCTGTTCAAGCGCCATCTAC	0.23
GATGATTGTTCTCCCAGCTGATGAATTACCGTGATCGAGTAAACAAATTTTCCTAATCTTTCTGTTCAAGCGCCATCTAC	0.455
GATGATTGTTCTCCCAGCTGATGAATTGCTGGCCTCGAGTAAACAAATTTTCCTAATCTTTCTGTTCAAGCGCCATCTAC	0.655
